Source: PubChem BioAssay AID445 (National Center for Advancing Translational Sciences (NCATS), 2006)
In all, about 110,000 compounds went through this assay and about 40 (0.04%) were called active. Inconclusive means that the source gave no clear call. Such entries were picked first, then a sample of the others. The call rests on the fitted dose curve; in most records, active means well fitted curve in the direction sought with a large enough effect in the signal ratio (not every such curve was filed as active); inconclusive means small, poorly fitted or top-dose-only effect, or a change in a side signal; inactive means flat fitted curve, though single readings scatter; the % refers to the signal ratio. A potency beside an inconclusive call is a rough fit, not a confirmed value.

Test: IkB Signaling;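 on IkBa stabilization activation: 0% = basal untreated cells and 100% = reference inhibitor full response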
Details: ABC-DLBCL IkBa-CBG/CBR dual luciferase ratio (green luciferase fused to IkBa over red control in OCI-Ly3 lymphoma cells), 4 h; IkBa stabilization activation: at 57.1 µM (top of the series), scaled: untreated 0%, proteasome inhibitor 100% unless noted
In short: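 Curves were fitted separately to fusion (green), unfused (red) and ratio luminescence, then classed by r2, magnitude and activity. Cells: OCI-Ly3, 4 h compound plus doxycycline at 37C; 10 uM MG-132 defined full response.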
Potency means the concentration at half of the fitted maximal effect.

Row | Structure (SMILES) | IkBa stabilization activation | Potency
1 | CCc1ccc2occ(CC(=O)Nc3c(C(=O)Nc4ccc(OC)cc4)oc4ccccc34)c2c1 | inconclusive: 1.3% [signal inhibitor] | 
2 | CC(CNC(=O)Cn1ccc2cc(S(=O)(=O)N3CCCCC3)ccc21)c1ccccc1 (stereo not given) | inconclusive: -2.27% [signal inhibitor] | 
3 | CCOc1ccccc1CN1C(=O)NC(C)(c2ccccc2)C1=O (stereo not given) | inactive | 
4 | N#Cc1cccc(-c2nc3cnc(N4CCOCC4)nc3n(C3CC3)c2=O)c1 | inactive: 1.83% [at 11.4 µM, scaled: untreated 0%, proteasome inhibitor 100%] | 
5 | CCS(=O)(=O)N1CCc2cc(C(=O)Nc3ccc(C)c(Cl)c3)ccc21 | inconclusive: 0.372% [signal inhibitor] | 
6 | CCCCOc1ccc(C(=O)NCC2(N3CCN(C)CC3)CCCCC2)cc1 | inconclusive: 2.04% [signal inhibitor] | 
7 | O=S(=O)(NCC1CCCO1)c1cccc(S(=O)(=O)N2CCCC2)c1 (stereo not given) | inactive | 
8 | CCOC(=O)C1CCN(c2nc(-c3ccc(Br)cc3)nc3ccccc23)CC1 | inconclusive: -5.4% [signal inhibitor] | 
9 | Fc1ccc(-c2nnc3ccc(N4CCc5ccccc5C4)nn23)cc1 | inconclusive: -10.7% [signal inhibitor] | 
10 | Cc1ccc2c(c1)C(c1ccccc1)N(C(=O)c1ccc(OC(C)C)cc1)CC(=O)N2 (stereo not given) | inactive | 
11 | O=C(CSc1nnc(-c2ccccc2O)o1)N1CCc2ccccc2C1 | inconclusive: 6.25% [signal inhibitor] | 
12 | CCN(CC)S(=O)(=O)c1ccc2c(c1)c(=O)c(C(=O)NCc1ccc(Cl)cc1)cn2C | inactive | 
13 | Oc1ccc(-c2nc3ncccn3c2Nc2ccc3c(c2)OCCO3)cc1 | inconclusive: 0.63% [signal inhibitor] | 
14 | CCOC(=O)C1CCN(C(=O)c2ccc3c(c2)sc2nc(-c4ccccc4)cn23)CC1 | inactive | 
15 | CC1(C)[C@@H](CC(=O)O)CCC[C@@H]1CC(=O)O | inactive: -0.314% [at 11.4 µM, scaled: untreated 0%, proteasome inhibitor 100%] | 
16 | CCC(=O)N1CCc2cc(Br)cc(S(=O)(=O)N3CCCC(C(=O)NCc4cccc(OC)c4)C3)c21 (stereo not given) | inconclusive: 4.59% [signal inhibitor] | 
17 | Cc1nc2c(-c3ccccc3)c(C)nn2c(C)c1CCC(=O)N1CCN(c2ccccc2)CC1 | inconclusive: -0.193% [signal inhibitor] | 
18 | CC(=O)N1CCCc2ccc(NS(=O)(=O)c3ccc(C)c(C)c3)cc21 | inconclusive: 3.94% [signal inhibitor] | 

Row | Structure (SMILES) | IkBa stabilization activation | Potency
19 | Cn1nc(C(=O)N2CCN(c3cccc(Cl)c3)CC2)c2c1-c1ccccc1S(=O)(=O)C2 | inconclusive: 2.82% [signal inhibitor] | 
20 | CCCCCn1c(NCc2ccccc2OC)nc2ccccc21 | inconclusive: 0.883% [signal inhibitor] | 
21 | CCCS(=O)(=O)c1ncc(Cl)c(C(=O)Nc2c(C(=O)c3ccccc3)oc3ccccc23)n1 | inconclusive: 9.67% [signal inhibitor] | 
22 | O=C(Nc1cn(-c2ccccc2)nc1-c1cccs1)c1ccco1 | inactive | 
23 | Cc1cccc(-c2cc3nc4c(c(N5CCC6(CC5)OCCO6)n3n2)CCCC4)c1 | inconclusive: 3.09% [signal inhibitor] | 
24 | CCOC(=O)c1[nH]c(C)c(C(=O)Nc2ccc3c(c2)CCC3)c1C | inactive | 
25 | Cc1ccc(CCNC(=O)CCn2c(=O)c3cccn3c3ccc(F)cc32)cc1 | inconclusive: 2.29% [signal inhibitor] | 
26 | Fc1cccc(F)c1-c1nc(-c2ccncc2)no1 | inconclusive: -2.65% [signal activator] | 
27 | Cc1cc(=O)n2nc(N3CCC(C(=O)Nc4ccc(C(C)C)cc4)CC3)sc2n1 | inconclusive: 1.19% [signal inhibitor] | 
28 | Cc1nnc(Sc2nc(Sc3nnc(C)s3)nc(N3CCN(C)CC3)n2)s1 |  | active: 7.94 µM
29 | COc1ccc(C(=O)Nc2ccc(-c3cc4ccccc4oc3=O)c(C)c2)cc1Br | inactive | 
30 | COc1cccc(CNC(=O)CCS(=O)(=O)c2cc3c(cc2C)NC(=O)CO3)c1 | inconclusive: 1.44% [signal inhibitor] | 
31 | c1ccc(Nc2ncnc3ccc(-c4cccnc4)cc23)cc1 | inactive: -1.71% [at 11.4 µM, scaled: untreated 0%, proteasome inhibitor 100%] | 
32 | CN(C)c1ccc(CNC(=O)CCCN2C(=O)CCn3nc(-c4cccn4C)cc32)cc1 |  | inconclusive: 20 µM [signal inhibitor]
33 | Cc1cc2cc(CCNC(=O)CC(C)C)c(=O)[nH]c2cc1C | inactive | 
34 | Cc1ccc(-n2c(=O)c3c4c(sc3n(Cc3ccccc3F)c2=O)CCC4)cc1C | inactive | 
35 | COc1cc(-c2nc3sccn3c2Nc2cccc(C)c2)ccc1O |  | inconclusive: 25.1 µM [signal inhibitor, single point]
